According to publication PMC5700166:
Only a part is listed here, and it is no random draw. The list includes weakly bound sequences.

Key:
Assay in all cases: protein-binding microarray (PBM)
Details in all cases: PBM: ~300 nM protein, 6 mM HEPES pH 7.8, 80 mM KCl, 0.5 mM EDTA, 0.5 mM EGTA, 6% glycerol, 35 ng/ul poly-dIdC, 1% milk, 1 h, room temperature; Ap Aiptasia and Nv Nematostella (sea anemones) / Co Capsaspora / Aq Amphimedon (sponge) / Dm Drosophila / Hu human; RHD is the Rel homology domain; high values mean tight binding; most listed sequences are background and not binding sites; double strand, one strand shown
GST-Ap-NF-kB RHD = target: T1, GST-Ap-NF-kB RHD (UniProt A0A913YAJ5)
T1 sequence: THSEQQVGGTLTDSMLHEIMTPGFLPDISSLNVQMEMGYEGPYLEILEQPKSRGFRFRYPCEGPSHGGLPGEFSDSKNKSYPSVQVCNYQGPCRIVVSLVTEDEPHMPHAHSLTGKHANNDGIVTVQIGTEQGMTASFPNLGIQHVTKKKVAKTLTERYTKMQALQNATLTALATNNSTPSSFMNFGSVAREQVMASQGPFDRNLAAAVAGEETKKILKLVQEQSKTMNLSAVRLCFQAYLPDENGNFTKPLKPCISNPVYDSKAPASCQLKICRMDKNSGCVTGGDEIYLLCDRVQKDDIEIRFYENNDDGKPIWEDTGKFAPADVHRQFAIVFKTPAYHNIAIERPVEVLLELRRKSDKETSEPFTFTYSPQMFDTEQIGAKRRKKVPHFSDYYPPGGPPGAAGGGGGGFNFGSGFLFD

[1] = target: T2, GST-Nv-NF-kB (Cys allele) (UniProt E5G601)
T2 sequence: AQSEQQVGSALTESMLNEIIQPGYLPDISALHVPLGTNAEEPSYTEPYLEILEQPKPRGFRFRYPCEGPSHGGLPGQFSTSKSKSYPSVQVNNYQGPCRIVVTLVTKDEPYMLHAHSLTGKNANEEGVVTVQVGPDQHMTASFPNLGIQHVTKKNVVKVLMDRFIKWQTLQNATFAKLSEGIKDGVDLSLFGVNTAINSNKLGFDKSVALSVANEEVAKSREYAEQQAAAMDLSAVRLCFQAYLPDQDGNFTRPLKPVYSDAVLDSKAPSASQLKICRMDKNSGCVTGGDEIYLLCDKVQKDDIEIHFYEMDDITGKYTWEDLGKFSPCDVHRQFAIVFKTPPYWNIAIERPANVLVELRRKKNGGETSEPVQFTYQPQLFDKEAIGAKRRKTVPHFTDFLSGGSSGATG

GST-Co-NF-kB = target: T3, GST-Co-NF-kB (UniProt F1ARL5)
T3 sequence: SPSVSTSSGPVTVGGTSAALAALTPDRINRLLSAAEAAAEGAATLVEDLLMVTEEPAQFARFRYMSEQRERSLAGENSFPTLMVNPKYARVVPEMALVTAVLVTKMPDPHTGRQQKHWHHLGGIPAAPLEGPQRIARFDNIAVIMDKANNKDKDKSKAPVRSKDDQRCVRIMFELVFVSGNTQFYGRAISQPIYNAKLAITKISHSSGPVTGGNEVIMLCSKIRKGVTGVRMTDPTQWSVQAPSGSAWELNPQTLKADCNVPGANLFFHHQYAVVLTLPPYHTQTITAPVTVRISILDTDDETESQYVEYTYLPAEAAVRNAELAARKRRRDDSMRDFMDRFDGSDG

GST-Dm-Relish = target: T4, GST-Dm-Relish (UniProt Q94527)
T4 sequence: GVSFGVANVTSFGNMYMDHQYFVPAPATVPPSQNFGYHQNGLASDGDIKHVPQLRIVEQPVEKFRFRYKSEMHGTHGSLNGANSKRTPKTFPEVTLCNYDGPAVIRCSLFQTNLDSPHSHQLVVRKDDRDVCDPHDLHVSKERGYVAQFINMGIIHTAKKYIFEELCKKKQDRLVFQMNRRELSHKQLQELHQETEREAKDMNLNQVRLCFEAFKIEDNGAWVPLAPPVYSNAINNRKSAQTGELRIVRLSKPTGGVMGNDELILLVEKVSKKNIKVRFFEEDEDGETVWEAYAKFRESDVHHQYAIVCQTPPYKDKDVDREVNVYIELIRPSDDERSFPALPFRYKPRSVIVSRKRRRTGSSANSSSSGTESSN

GST-Aq-NF-kB = target: T5, GST-Aq-NF-kB (UniProt A9Y5G7)
T5 sequence: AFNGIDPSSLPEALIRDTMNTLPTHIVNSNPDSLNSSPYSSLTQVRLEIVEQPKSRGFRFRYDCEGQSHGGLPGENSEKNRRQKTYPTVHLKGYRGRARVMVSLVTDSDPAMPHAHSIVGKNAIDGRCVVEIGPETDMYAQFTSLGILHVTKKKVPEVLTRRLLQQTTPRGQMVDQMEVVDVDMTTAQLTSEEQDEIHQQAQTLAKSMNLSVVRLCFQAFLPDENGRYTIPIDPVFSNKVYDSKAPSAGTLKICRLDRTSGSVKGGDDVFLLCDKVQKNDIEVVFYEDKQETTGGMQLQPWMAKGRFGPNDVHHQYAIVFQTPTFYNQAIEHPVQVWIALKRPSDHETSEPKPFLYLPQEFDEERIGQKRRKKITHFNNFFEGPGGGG

Row | Sequence | binding signal (GST-Ap-NF-kB RHD) [z-score] | binding signal [1] [z-score] | binding signal (GST-Co-NF-kB) [z-score] | binding signal (GST-Dm-Relish) [z-score] | binding signal (GST-Aq-NF-kB) [z-score]
1 | CCGATTAACATCACGATAGCTATTGATGTTAATCGGGTCTTGATTCGCTTGACGCTGCTG | -0.483 | -0.0464 | -0.217 | -0.757 | -0.505
2 | CCGATTAACATCACACTCAGTCCTGATGTTAATCGGGTCTTGATTCGCTTGACGCTGCTG | -0.0952 | 0.0587 | 0.353 | 0.665 | -0.0207
3 | CCGATTAACATCATTACTAGACGTGATGTTAATCGGGTCTTGATTCGCTTGACGCTGCTG | -0.215 | -0.00344 | -0.563 | 0.219 | -0.373
4 | CCGATTAACATCAGACAGTGTCTTGATGTTAATCGGGTCTTGATTCGCTTGACGCTGCTG | -0.0886 | 0.323 | -0.129 | -0.668 | -0.55
5 | CCGATTAACATCAGTTCCTAATATGATGTTAATCGGGTCTTGATTCGCTTGACGCTGCTG | -0.731 | 0.503 | 0.508 | 0.013 | -0.404
6 | CCGATTAACATCATATTTGACACTGATGTTAATCGGGTCTTGATTCGCTTGACGCTGCTG | -0.924 | -0.217 | -0.183 | -0.487 | -0.316
7 | CCGATTAACATCAGGTATTGTGCTGATGTTAATCGGGTCTTGATTCGCTTGACGCTGCTG | 0.117 | 0.393 | -0.0161 | -0.0573 | -0.0694
8 | CCGATTAACATCATCGCATATGCTGATGTTAATCGGGTCTTGATTCGCTTGACGCTGCTG | -0.403 | -1.19 | -0.951 | -0.706 | -0.583
9 | CCGATTAACATCACTTTCGACCATGATGTTAATCGGGTCTTGATTCGCTTGACGCTGCTG | 0.0137 | -0.542 | 0.35 | -0.0416 | -0.231
10 | CCGATTAACATCAGAATTTTCCATGATGTTAATCGGGTCTTGATTCGCTTGACGCTGCTG | 0.104 | -0.155 | 0.515 | -0.00679 | 0.625
11 | CCGATTAACATCACAAACTAGCCTGATGTTAATCGGGTCTTGATTCGCTTGACGCTGCTG | 0.61 | -0.275 | 0.114 | -0.24 | -0.396
12 | CCGATTAACATCAACTGCCAAGATGATGTTAATCGGGTCTTGATTCGCTTGACGCTGCTG | -0.317 | -0.158 | -0.567 | -1.19 | -0.452
13 | CCGATTAACATCAGGAGAATCCATGATGTTAATCGGGTCTTGATTCGCTTGACGCTGCTG | -0.585 | -0.554 | -0.445 | -0.144 | 0.209
14 | CCGATTAACATCAGGAAAATTACTGATGTTAATCGGGTCTTGATTCGCTTGACGCTGCTG | -0.751 | -0.116 | 0.35 | 1.67 | 0.65
15 | CCGATTAACATCATTAGCGTTACTGATGTTAATCGGGTCTTGATTCGCTTGACGCTGCTG | -0.122 | -0.194 | -0.43 | -0.459 | -0.453
16 | CCGATTAACATCAAATGGAAATTTGATGTTAATCGGGTCTTGATTCGCTTGACGCTGCTG | -1.15 | 0.713 | -0.489 | 0.705 | 0.0592
17 | CCGATTAACATCAGGCTAGGCTTTGATGTTAATCGGGTCTTGATTCGCTTGACGCTGCTG | -0.453 | -1.02 | -1.27 | -1.49 | -0.716
18 | CCGATTAACATCATTGCGGCTCATGATGTTAATCGGGTCTTGATTCGCTTGACGCTGCTG | -0.688 | 0.212 | -0.739 | -0.711 | -0.316
19 | CCGATTAACATCACTGGACAAATTGATGTTAATCGGGTCTTGATTCGCTTGACGCTGCTG | -0.432 | -0.0377 | 0.266 | 0.068 | -0.195
20 | CCGATTAACATCATTTCTCCTATTGATGTTAATCGGGTCTTGATTCGCTTGACGCTGCTG | -0.0258 | -0.0265 | 0.422 | -0.261 | -0.206
21 | CCGATTAACATCACACACTCAGATGATGTTAATCGGGTCTTGATTCGCTTGACGCTGCTG | 0.00105 | 0.589 | 0.971 | 0.475 | -0.103
22 | CCGATTAACATCAAATTTCCGTATGATGTTAATCGGGTCTTGATTCGCTTGACGCTGCTG | -0.111 | 0.297 | 0.774 | 0.595 | 0.936
23 | CCGATTAACATCAGGACCTGAAGTGATGTTAATCGGGTCTTGATTCGCTTGACGCTGCTG | -0.328 | 0.0165 | -0.301 | 0.0504 | -0.606
24 | CCGATTAACATCAAGAATCGCAGTGATGTTAATCGGGTCTTGATTCGCTTGACGCTGCTG | 0.188 | -0.405 | 0.0977 | 0.0847 | -0.25
25 | CCGATTAACATCATTACATGACGTGATGTTAATCGGGTCTTGATTCGCTTGACGCTGCTG | -0.372 | -0.243 | -0.375 | 0.252 | -0.225
26 | CCGATTAACATCAGGATCCAAGGTGATGTTAATCGGGTCTTGATTCGCTTGACGCTGCTG | 0.315 | -0.441 | 0.185 | -0.0594 | 0.374
27 | CCGATTAACATCAGTAGCGCAATTGATGTTAATCGGGTCTTGATTCGCTTGACGCTGCTG | 0.246 | -0.739 | -0.718 | -0.849 | -0.334
